In the supplement of paper PMC10369915:
The list shows a part of the results. Rule as the data show it: active = 3.2 or more and inactive = the rest. Most of these values are background signal.

Key:
Experiment in all cases: enrichment score (SH2-bound / input frequency) (ratio); bacterial display of known human phosphotyrosine sites (pTyr-Var adds point mutants) read by sequencing; higher = stronger binding; tyrosines were phosphorylated by kinases first
Details in all cases: peptide library: pTyr-Var
SHP2 C-SH2 domain E139D = molecular target: SHP2 C-SH2 domain E139D
[1] = molecular target: SHP2 C-SH2 domain wild-type
SHP2 N-SH2 domain L43F = molecular target: SHP2 N-SH2 domain L43F
SHP2 N-SH2 domain T42A = molecular target: SHP2 N-SH2 domain T42A
SHP2 N-SH2 domain T52S = molecular target: SHP2 N-SH2 domain T52S
[2] = molecular target: SHP2 N-SH2 domain wild-type
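Also: displayed peptides selected on beads carrying the immobilized SH2 domain, with library peptides lacking any tyrosine serving as negative controls.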

Binder	enrichment score (SHP2 C-SH2 domain E139D)	enrichment score [1]	enrichment score (SHP2 N-SH2 domain L43F)	enrichment score (SHP2 N-SH2 domain T42A)	enrichment score (SHP2 N-SH2 domain T52S)	enrichment score [2]
HICTAYKLVLA [DHCR24_Y190_E191K]	inactive: 1.55	inactive: 1.8	inactive: 2.24	inactive: 1.77	inactive: 1.92	inactive: 2.36
NSIGNYYKPWF [DHCR24_Y299]	inactive: 1.2	inactive: 1.88	active: 4.59	active: 5.3	active: 5.99	inactive: 1.83
TSIGNYFKPWF [DHCR24_Y299_N294T_YF]	inactive: 2.56	active: 3.67	active: 12.6	active: 13.5	active: 14	active: 5.26
VIECSYTSADG [DHCR7_Y382]	inactive: 0.885	inactive: 0.972	inactive: 0.748	inactive: 0.657	inactive: 0.735	inactive: 1.04
VIERSYTSADG [DHCR7_Y382_C380R]	inactive: 0.494	inactive: 0.472	inactive: 0.531	inactive: 0.386	inactive: 0.386	inactive: 0.459
VIEYSYTSADG [DHCR7_Y382_C380Y]	inactive: 1.06	inactive: 2.05	inactive: 0.979	inactive: 2.07	inactive: 0.776	inactive: 0.872
VIEFSYTSADG [DHCR7_Y382_C380Y_YF]	inactive: 1.13	inactive: 0.888	inactive: 1.04	inactive: 0.943	inactive: 0.992	inactive: 1.21
IDLEKYKLLPE [DHFR_Y157]	inactive: 1.27	inactive: 1.4	inactive: 1.2	inactive: 0.915	inactive: 1.14	inactive: 1.14
IVLEKYKLLPE [DHFR_Y157_D153V]	inactive: 1.38	inactive: 1.45	inactive: 1.47	inactive: 1.18	inactive: 1.37	inactive: 1.31
KLLPEYPGVLS [DHFR2_Y163]	inactive: 1.69	inactive: 1.2	inactive: 1.24	inactive: 1.03	inactive: 1.22	inactive: 1.29
KLLPEYPGILS [DHFR2_Y163_V166I]	inactive: 1.1	inactive: 1.12	inactive: 1.28	inactive: 1.37	inactive: 1.48	inactive: 1.43
DAAEDYAEGVC [DHODH_Y194_R199C]	inactive: 0.554	inactive: 0.669	inactive: 0.472	inactive: 0.528	inactive: 0.492	inactive: 0.678
RKLASYQSCLL [DHX37_Y1080_R1081Q]	inactive: 0.833	inactive: 1.04	inactive: 0.666	inactive: 0.786	inactive: 0.67	inactive: 0.948
MDQAEYQAKIQ [DHX58_Y518_R523Q]	inactive: 0.452	inactive: 0.517	inactive: 0.53	inactive: 0.646	inactive: 0.477	inactive: 0.545
EQSGSYIWVPA [DLG1_Y895]	inactive: 0.811	inactive: 0.861	inactive: 0.72	inactive: 0.783	inactive: 0.723	inactive: 0.666
RLPNGYGLAFR [DLK1_Y262_S260N_YF]	inactive: 0.938	inactive: 0.767	inactive: 0.82	inactive: 0.877	inactive: 0.863	inactive: 0.839
RLPSGYGLAFR [DLK1_Y262_YF]	inactive: 0.812	inactive: 0.849	inactive: 0.784	inactive: 0.731	inactive: 0.707	inactive: 0.854
KIVATYRLCSE [DNAH3_Y1586]	inactive: 0.647	inactive: 0.729	inactive: 0.623	inactive: 0.535	inactive: 0.527	inactive: 0.6
KIIATYRLCSE [DNAH3_Y1586_V1583I]	inactive: 0.77	inactive: 0.905	inactive: 0.726	inactive: 0.819	inactive: 0.687	inactive: 0.935

Binder	enrichment score (SHP2 C-SH2 domain E139D)	enrichment score [1]	enrichment score (SHP2 N-SH2 domain L43F)	enrichment score (SHP2 N-SH2 domain T42A)	enrichment score (SHP2 N-SH2 domain T52S)	enrichment score [2]
GMKIVYVYVKK [DNAI2_Y5_E2K]	inactive: 1.71	inactive: 2.22	inactive: 2.31	inactive: 1.72	inactive: 1.47	inactive: 1.36
GMKIVYVFVKK [DNAI2_Y5_E2K_YF]	inactive: 1.7	inactive: 1.83	inactive: 1.43	inactive: 1.7	inactive: 1.66	inactive: 1.82
EIVYVYVKKRS [DNAI2_Y7]	inactive: 0.419	inactive: 0.689	inactive: 0.493	inactive: 0.519	inactive: 0.553	inactive: 0.65
KIVFVYVKKRS [DNAI2_Y7_E2K_YF]	inactive: 1.59	inactive: 1.36	inactive: 1.58	inactive: 1.26	inactive: 1.52	inactive: 1.25
EIVFVYVKKRS [DNAI2_Y7_YF]	inactive: 0.746	inactive: 0.761	inactive: 0.763	inactive: 0.67	inactive: 0.756	inactive: 0.803
DQIDTYELSGG [DNM1_Y354]	inactive: 0.541	inactive: 0.353	inactive: 0.755	inactive: 0.732	inactive: 0.265	inactive: 0.296
RIVTTYIRERE [DNM2_Y463]	inactive: 0.235	inactive: 0.245	inactive: 0.201	inactive: 0.214	inactive: 0.201	inactive: 0.199
EKEKEYMLPLD [DNM2_Y563_K562E]	inactive: 0.665	inactive: 0.645	inactive: 0.695	inactive: 0.622	inactive: 0.622	inactive: 0.742
LRAGVYHEKDQ [DNM2_Y626_P627H]	inactive: 1.2	inactive: 1.34	inactive: 1	inactive: 1.19	inactive: 1.07	inactive: 1.31
GIVTGYLVLKE [DNMT3B_Y588_A585V]	inactive: 1.39	inactive: 1.29	inactive: 1.32	inactive: 1.89	inactive: 1.47	inactive: 1.59
GFPVHYTDVSN [DNMT3B_Y815]	inactive: 1.01	inactive: 2.04	inactive: 2.12	active: 6.65	inactive: 2.42	inactive: 1.13
GFPVHYTDMSN [DNMT3B_Y815_V818M]	inactive: 0.994	inactive: 1.79	inactive: 0.94	active: 3.78	inactive: 0.868	inactive: 0.81
CDTKLYTSAPN [DNTTIP2_Y427]	inactive: 0.631	inactive: 0.766	inactive: 0.698	inactive: 0.649	inactive: 0.648	inactive: 0.665
FFTEEYVRAHP [DOCK2_Y1555_D1558A]	inactive: 1.17	inactive: 1.34	inactive: 1.02	inactive: 0.949	inactive: 1.12	inactive: 1.2
HELYVYKCDEN [DOCK3_Y548]	inactive: 0.662	inactive: 0.541	inactive: 0.419	inactive: 0.588	inactive: 0.46	inactive: 0.405
HELYVYKSDEN [DOCK3_Y548_C550S]	inactive: 0.881	inactive: 1	inactive: 0.781	inactive: 0.881	inactive: 0.89	inactive: 0.928
HELFVYKCDEN [DOCK3_Y548_YF]	inactive: 1.01	inactive: 1.06	inactive: 1.22	inactive: 0.925	inactive: 0.934	inactive: 1.22
RPDSPYSRLHD [DOK2_Y271_P274L]	inactive: 0.754	inactive: 0.884	inactive: 0.71	inactive: 0.496	inactive: 0.516	inactive: 0.506
